# From PubChem BioAssay AID588855 (National Center for Advancing Translational Sciences (NCATS), 2011)
# “And” between values parts separate entries of the source, which are not always exact repeats. Equal values may be shown once. Hit rate of the full screen: of about 410,000 compounds, about 5,000 (1.2%) were called active. This list was built around the results that the source calls inconclusive (neither active nor inactive); the mix of calls is not that of the screen. The call rests on the fitted dose curve; in most records, active means well fitted inhibition curve with a large enough effect; inconclusive means small, poorly fitted or top-dose-only effect; inactive means no such curve, though single readings can be large or run the other way. A potency beside an inconclusive call is a rough fit, not a confirmed value.
# Assay: qHTS for Inhibitors of TGF-b; further: nearly all actives have a fitted effect of over 65% in size
# Conditions: HepG2 CAGA-GFP TGF-b/SMAD3 reporter, GFP fluorescence, 18 h, TGF-beta stimulated, 500 pg/mL final; series mostly up to 46.1 µM; activity, negative = inhibition: at the top concentration
# Procedure, shortened: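 Cell-based qHTS in HEPG2 carrying a CAGA-GFP Smad reporter; compounds added before 500 pg/mL final TGF-beta, 18 h incubation at 37 degrees C, GFP fluorescence quantified per cell by imaging cytometry.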
# On the % scale 0 is the no-effect control and ±100 the full control effect; potency means the concentration at half of the fitted maximal effect; tags describe the fitted curve by direction and shape.
SMILES,Potency,"activity, negative = inhibition"
CCOc1ncccc1C(=O)OC(C)C(=O)Nc1ccc(Cl)cn1 (stereo not drawn),"inconclusive: 5.62 µM [inhibitor, single point]",–
CCC(C)C(NC(=O)[C@@H](NC(=O)c1ccccc1F)C(C)C)C(=O)OC (stereo partly drawn),"inconclusive: 35.5 µM [inhibitor, single point]",–
COc1ccc(OC)c(/C=C2\N=C(c3ccccc3)OC2=O)c1,–,inactive: 1.8%
CCOc1ccc(CNC(=O)Cn2nc(C)c3c(C)n(-c4ccc(C)cc4)nc3c2=O)cc1,"inconclusive: 1.12 µM [inhibitor, partial curve, poor fit] and inconclusive: 7.08 µM [inhibitor, partial curve, poor fit]",–
Cc1cc(NCCc2ccc(Cl)cc2)n2ncnc2n1,–,inactive: 1.6%
Cc1ccc(CC(=O)O/N=C(\N)Cc2ccc([N+](=O)[O-])cc2)cc1,–,inactive: -3.52%
CC1(C)CC2=C(CO1)C(=S)NC(c1ccccc1)N2CC1CCCO1 (stereo not drawn),–,inactive: 11.7%
CC(Sc1nnc(-c2ccccc2)n1C)C(=O)NCc1ccco1 (stereo not drawn),–,inactive: -19.5%
Cn1c(=O)c2c(nc(NCc3ccco3)n2Cc2ccccc2Cl)n(C)c1=O,–,inactive: 0%
C/C(CC(C)(C)C1CCCCC1)=N\NC(N)=S,active: 6.31 µM,–
COc1ccc(-n2nnnc2SC(C)C(=O)NCC(=O)Nc2ccc(F)c(F)c2F)cc1 (stereo not drawn),"inconclusive: 35.5 µM [inhibitor, single point]",–
COc1ccc(C(=O)Cn2nnc(-c3ccccc3NC(=O)C3CCCCC3)n2)cc1,–,inactive: -6.83%
C=CCNC(=S)NC(=O)c1oc2ccccc2c1C,–,inactive: 10.5%
COc1ccccc1C(=O)NCCC(=O)N(C)CC(=O)Nc1ccc(C)cc1,"inconclusive: 0.631 µM [inhibitor, partial curve, poor fit]",–
CCn1c(SC)nnc1-c1c[nH]c2ccccc12,–,inactive: -1.15%
C#CCn1c(=O)n(-c2cccc(Cl)c2C)c(=O)c2c3c(sc21)CN(C(C)=O)CC3,–,inactive: -0.769%
Cc1cc(C)c2c(CCl)cc(=O)oc2c1,"inconclusive: 3.16 µM [inhibitor, partial curve, poor fit]",–
COc1cc(OC)c(/C=C/c2cc(/C=C/c3c(OC)cc(OC)cc3OC)[n+](C)c3ccccc23)c(OC)c1,"inconclusive: 15.8 µM [inhibitor, single point]",–
O=C(Nc1ccc(F)cc1)c1cc(S(=O)(=O)Nc2ccc(F)cc2)cs1,"inconclusive: 35.5 µM [inhibitor, single point]",–
COc1cc2oc(=O)cc(-c3ccc(-c4ccc(OC(F)(F)F)cc4)cc3)c2c(OC)c1OC,"inconclusive: 15.8 µM [inhibitor, partial curve, poor fit]",–
Cc1cc(C)nc(N2CCCC(C(=O)NC3CC3)C2)n1 (stereo not drawn),–,inactive: 4.2%
Cn1c(=O)c2c(nc(NCCCO)n2Cc2cccc(Br)c2)n(C)c1=O,–,inactive: -14.1%
CCCCNC(=S)Nc1ccc(Oc2ccccc2)cc1,"inconclusive: 22.4 µM [inhibitor, single point]",–

SMILES,Potency,"activity, negative = inhibition"
CC(C)C(=O)NC(=S)Nc1ccc(S(=O)(=O)Nc2nccs2)cc1,"inconclusive: 2 µM [inhibitor, partial curve]",–
CCOC(=O)c1c(NC(=O)CSc2nnnn2C)sc(C)c1-c1ccc(C)cc1,"inconclusive: 28.2 µM [inhibitor, single point]",–
COc1ccc(OC)c(-c2cc(C(=O)NCCN3CCOCC3)no2)c1,–,inactive: 4.8%
CC(=O)C1=C(c2ccccc2)NC(=S)NC1c1cc(Cl)c(OC(C)C)c(Cl)c1 (stereo not drawn),"inconclusive: 35.5 µM [inhibitor, single point]",–
Cc1ncoc1C(=O)N1CCCC(N2CCN(c3ccccc3F)CC2)C1 (stereo not drawn),–,inactive: 0.0527%
NC(c1ccccc1)c1csc(Nc2ccccn2)n1 (stereo not drawn),"inconclusive: 11.2 µM [inhibitor, single point]",–
CCOC(=O)c1cnn(-c2nc3c(C)cccc3s2)c1C(F)(F)F,"inconclusive: 6.31 µM [inhibitor, single point]",–
Nc1nonc1-n1nnc(C(=O)N/N=C/c2cccc(F)c2)c1-c1ccccc1,"inconclusive: 11.2 µM [inhibitor, single point]",–
CC(=O)Nc1ccc2c(c1)C(=O)c1cccc(C(=O)O)c1-2,"inconclusive: 0.282 µM [inhibitor, full curve, poor fit]",–
O=S(=O)(c1ccc(Cl)cc1)c1nc(-c2ccco2)oc1SCc1ccccc1F,–,inactive: -10.6%
O=C1C2CCCN2C(=O)N1CCCCN1CCN(c2ccc(F)cc2)CC1 (stereo not drawn),"inconclusive: 0.447 µM [inhibitor, full curve]",–
COc1ccccc1CNC(=O)CSc1ccc(-c2sc(-c3ccccc3)nc2C)nn1,"inconclusive: 2.82 µM [inhibitor, partial curve, poor fit]",–
CSc1nc2ccccc2cc1/C=C(\C#N)c1ccc(Cl)cc1Cl,"inconclusive: 0.562 µM [inhibitor, full curve]",–
Cc1c(C)n(Cc2ccc(F)cc2)c2ccc(C(=O)NCCN3CCOCC3)cc12,"inconclusive: 0.562 µM [inhibitor, full curve, poor fit]",–
COc1ccccc1NC(=O)C1=C(C)Nc2nc(-c3ccc(N(C)C)cc3)nn2C1c1ccncc1 (stereo not drawn),"inconclusive: 0.224 µM [inhibitor, full curve, poor fit]",–
O=C(CCn1c(=O)c2ccccc2n(CC(=O)NCCC2=CCCCC2)c1=O)NCc1ccco1,"inconclusive: 6.31 µM [inhibitor, single point]",–
COc1ccc(C(=O)Nc2ccc(C)cn2)cc1S(=O)(=O)N1CCCc2ccccc21,"inconclusive: 22.4 µM [inhibitor, partial curve, poor fit]",–
Cc1cc(Br)cn2c(Cc3cccc(F)c3)c(C3CCCCC3)nc12,"inconclusive: 22.4 µM [inhibitor, single point]",–
O=C(c1ccccc1)c1c[nH]c(C(=O)C(Cl)(Cl)Cl)c1,–,inactive: -13.9%
CCOC(=O)N1CCN(c2c(N3CCN(c4cc(C)ccc4C)CC3)c(=O)c2=O)CC1,"inconclusive: 5.62 µM [inhibitor, single point]",–
CCOC(=O)c1c(NC(=O)c2cc(=O)c3cc(C)cc(C)c3o2)sc(C)c1C,"inconclusive: 3.16 µM [inhibitor, single point]",–
C/C(CC(=O)Nc1ccc(C)c(Cl)c1)=N\NC(=O)Cc1cccs1,"inconclusive: 35.5 µM [inhibitor, single point]",–
CCN(Cc1ccc(C#CCCO)cc1)CC1CCCN(CCc2cccc(OC)c2)C1 (stereo not drawn),"inconclusive: 25.1 µM [inhibitor, single point]",–

SMILES,Potency,"activity, negative = inhibition"
COc1ccc(-c2nc3ccccn3c2CN2CCN(c3ccccc3F)CC2)cc1,"inconclusive: 31.6 µM [inhibitor, partial curve, poor fit]",–
COc1cc2c3c(c1)C(C)=CC(C)(C)N3C(=O)C2=O,"inconclusive: 35.5 µM [inhibitor, single point]",–
CCOc1ccc(CNc2nc3ccccc3n2CCN2CCOCC2)cc1,"inconclusive: 2 µM [inhibitor, partial curve, poor fit]",–
COc1cccc(C(=O)NOCc2ccccc2)c1OC,–,inactive: 1.04%
COc1ccc(OC)c(C2=NNC(=NCc3ccc4c(c3)OCO4)SC2)c1,"inconclusive: 15.8 µM [inhibitor, partial curve, poor fit]",–
COc1cc2[nH]c(=S)nc(NC3CCCCCC3)c2cc1OC,"inconclusive: 35.5 µM [inhibitor, single point]",–
Nc1ncn(-c2ncc(C(F)(F)F)cc2Cl)n1,–,inactive: -3.16%
COCCn1c(-c2ccc(OC(F)(F)C(F)C(F)(F)F)cc2)nc2c1c(=O)[nH]c(=O)n2CC(C)C (stereo not drawn),"inconclusive: 35.5 µM [inhibitor, single point]",–
COC(=O)c1ccc(NC(=O)CSc2nnc3c4ccccc4n(C(C)C)c3n2)cc1,–,inactive: 3.66%
COCC(C)NS(=O)(=O)c1ccc(C(=O)NCCCn2ccc3ccccc32)cc1 (stereo not drawn),"inconclusive: 5.62 µM [inhibitor, single point]",–
CCOc1cccc(C(=O)Nc2cc(C)c(O)c(-c3nc4ncccc4o3)c2)c1,–,inactive: 0.853%
CCOC(=O)C1(Cc2cccc(OC)c2)CCN(Cc2cccc(OC)c2OC)CC1,"inconclusive: 0.112 µM [inhibitor, full curve, poor fit]",–
COc1ccc(-c2nc3cc(C)ccn3c2NC2CCCCC2)cc1SC1CCCCC1,"inconclusive: 12.6 µM [inhibitor, partial curve, poor fit]",–
COc1ccc(C2/C(=C(/O)c3ccccc3)C(=O)C(=O)N2C)cc1OC (stereo not drawn),–,inactive: -13%
FC(F)(F)c1ccc(C2[C@H]3CN(Cc4ccc(-c5ccccc5)cc4)[C@H](c4ccccc4)C34CC2(c2cccnc2)C4)cc1 (stereo partly drawn),"inconclusive: 35.5 µM [inhibitor, single point]",–
CCOc1c(Br)cc(C2CC(=O)Nc3cc4c(cc32)OCO4)cc1OC (stereo not drawn),"inconclusive: 15.8 µM [inhibitor, partial curve]",–
COc1ccc(/C=N/NC(=O)OC(C)(C)C)cc1OC,–,inactive: 4.8%
COCC(C)NS(=O)(=O)c1ccccc1 (stereo not drawn),–,inactive: 0.856%
O=C(CSc1n[nH]c(-c2ccc(F)cc2)n1)NCc1ccccc1Cl,"inconclusive: 0.316 µM [inhibitor, full curve, poor fit]",–
CCOC(=O)c1ccc(NC(=O)CCS(=O)(=O)c2cccc3nonc23)cc1,"inconclusive: 31.6 µM [inhibitor, single point]",–
Cc1ccc(C(OCC(O)CNCc2ccc(F)cc2)c2ccccc2)cc1 (stereo not drawn),"inconclusive: 14.1 µM [inhibitor, single point]",–
Cc1cc(C)cc(N2CC(O)Cn3c2nc2c3c(=O)[nH]c(=O)n2C)c1 (stereo not drawn),"inconclusive: 5.01 µM [inhibitor, partial curve, poor fit]",–
